In PubChem BioAssay AID1745844 (Carcinogenic Potency Database (CPDB), 2022):
The source holds more than one record for some entries. Only these are listed. How the calls were made is not given here. An entry can have further records. Values that stand side by side repeat one measurement across runs, samples, wells, individuals or studies. Records carry a tag for their origin. Letters count within one entry.

Test system: rodent lifetime carcinogenesis bioassay, tumor incidence TD50
Test: chronic cancer bioassays in animals – CPDB, compiled studies (AID 1745844)

## C=CCl
rat, strain Sprague-Dawley, females, inhaled, site: Zymbal's gland, lesion: carcinoma, dosed 52 weeks, study length 131 weeks
  TD50: 3640 mg/kg/day [study A] and 44.6 mg/kg/day [study B]
rat, strain Sprague-Dawley, females, inhaled, site: any site (literature study), lesion: several types, types named in the paper, dosed 52 weeks, study length 131 weeks
  TD50: 2770 mg/kg/day [study A] and 1.09 mg/kg/day [study B]
rat, strain Sprague-Dawley, females, inhaled, site: extrahepatic tissue, lesion: angioma, dosed 52 weeks, study length 131 weeks
  TD50: 94900 mg/kg/day [study A] and 75.1 mg/kg/day [study B]
rat, strain Sprague-Dawley, females, inhaled, site: liver, lesion: angioma, dosed 52 weeks, study length 131 weeks
  TD50: 3140 mg/kg/day [study A] and 60.1 mg/kg/day [study B]
rat, strain Sprague-Dawley, males, inhaled, site: Zymbal's gland, lesion: carcinoma, dosed 52 weeks, study length 123 weeks
  TD50: 315 mg/kg/day [study A] and 63.3 mg/kg/day [study B]
rat, strain Sprague-Dawley, males, inhaled, site: any site (literature study), lesion: several types, types named in the paper, dosed 52 weeks, study length 123 weeks
  TD50: 66.2 mg/kg/day [study A] and 8.44 mg/kg/day [study B]

## CCOC(=O)c1ccc(N)cc1
rat, strain ACI, males, in feed, site: colorectum, lesion: papilloma, dosed 68 weeks, study length 68 weeks
  TD50: inactive: 4250 mg/kg/day [sample A] and 466 mg/kg/day [sample B]

## CN(N=O)c1ncnc2nc[nH]c12
mouse, strain Swiss CD-1, females, in drinking water, site: lung, lesion: one or several types, types not named, dosed 104 weeks, study length 104 weeks
  TD50: 909 mg/kg/day [sample A] and 17.4 mg/kg/day [sample B]

## CCCC(Cl)CCCC(Cl)CCC(Cl)CCC(Cl)CCC(Cl)CCCC(Cl)CCC (centres undefined)
mouse, strain B6C3F1, females, by gavage, site: any site (literature study), lesion: several types, types named in the paper, dosed 103 weeks, study length 104 weeks
  TD50: 5830 mg/kg/day [sample A, study A] and 170 mg/kg/day [sample B, study B]
mouse, strain B6C3F1, females, by gavage, site: liver, lesion: hepatocellular adenoma + hepatocellular carcinoma + neoplastic nodule, dosed 103 weeks, study length 104 weeks
  TD50: 10500 mg/kg/day [sample A, study A] and 93.8 mg/kg/day [sample B, study B]
mouse, strain B6C3F1, females, by gavage, site: liver, lesion: hepatocellular adenoma + hepatocellular carcinoma, dosed 103 weeks, study length 104 weeks
  TD50: 10500 mg/kg/day [sample A, study A] and 93.8 mg/kg/day [sample B, study B]
mouse, strain B6C3F1, females, by gavage, site: liver, lesion: hepatocellular adenoma, dosed 103 weeks, study length 104 weeks
  TD50: 16200 mg/kg/day [sample A, study A] and 105 mg/kg/day [sample B, study B]
mouse, strain B6C3F1, females, by gavage, site: liver, lesion: hepatocellular carcinoma, dosed 103 weeks, study length 104 weeks
  TD50: 14000 mg/kg/day [sample A, study A] and 596 mg/kg/day [sample B, study B]
mouse, strain B6C3F1, males, by gavage, site: any site (literature study), lesion: several types, types named in the paper, dosed 103 weeks, study length 104 weeks
  TD50: 36400 mg/kg/day [sample A, study A] and 211 mg/kg/day [sample B, study B]
mouse, strain B6C3F1, males, by gavage, site: liver, lesion: hepatocellular adenoma + hepatocellular carcinoma + neoplastic nodule, dosed 103 weeks, study length 104 weeks
  TD50: 12300 mg/kg/day [sample A, study A] and 143 mg/kg/day [sample B, study B]
mouse, strain B6C3F1, males, by gavage, site: lung, lesion: alveolar/bronchiolar adenoma + alveolar/bronchiolar carcinoma, dosed 103 weeks, study length 104 weeks
  TD50: 31100 mg/kg/day [sample A, study A] and 851 mg/kg/day [sample B, study B]

## CC(=O)Nc1nc(-c2ccc([N+](=O)[O-])o2)cs1
rat, strain Sprague-Dawley, females, in feed, site: any site (literature study), lesion: several types, types named in the paper, dosed 46 weeks, study length 66 weeks
  TD50: 7.25 mg/kg/day [study A] and 22.8 mg/kg/day [study B] and 27.7 mg/kg/day [study C]

## COP(=O)(OC)OC(=CCl)c1cc(Cl)c(Cl)cc1Cl
mouse, strain B6C3F1, females, in feed, site: liver, lesion: hepatocellular adenoma, dosed 103 weeks, study length 103 weeks
  TD50: 65000 mg/kg/day [study A] and 21400 mg/kg/day [study B]

## Oc1ccccc1O
rat, strain F344/DuCrj, males, in feed, site: stomach, glandular, lesion: adenocarcinoma, dosed 51 weeks, study length 52 weeks
  TD50: 257 mg/kg/day [study A] and 833 mg/kg/day [study B]

## CNc1ccc(N(CCO)CCO)cc1[N+](=O)[O-]
mouse, strain B6C3F1, females, in feed, site: liver, lesion: hepatocellular adenoma, dosed 91 weeks, study length 91 weeks
  TD50: 917 mg/kg/day [sample A, study A] and 287 mg/kg/day [sample B, study B] and 574 mg/kg/day [sample B, study C]
mouse, strain B6C3F1, females, in feed, site: liver, lesion: hepatocellular adenoma, dosed 100 weeks, study length 100 weeks
  TD50: 530 mg/kg/day [sample A, study A] and 185 mg/kg/day [sample B, study B] and 1300 mg/kg/day [sample B, study C]

## CC/C(=C(\c1ccccc1)c1ccc(OCCN(C)C)cc1)c1ccccc1
rat, strain Charles River CD (Sprague-Dawley), females, by gavage, site: liver, lesion: hepatocellular adenoma, dosed 52 weeks, study length 52 weeks
  TD50: 1.68 mg/kg/day [study A] and 5.8 mg/kg/day [study B]

## CN(C)N
mouse, strain Charles River CD1, females, in drinking water, site: all sites, lesion: hemangiosarcoma, dosed 104 weeks, study length 104 weeks
  TD50: 328 mg/kg/day [study A] and 11.4 mg/kg/day [study B]
mouse, strain Charles River CD1, females, in drinking water, site: liver, lesion: all vascular tumors, dosed 104 weeks, study length 104 weeks
  TD50: 68.2 mg/kg/day [study A] and 11.8 mg/kg/day [study B]
mouse, strain Charles River CD1, females, in drinking water, site: liver, lesion: hemangiosarcoma, dosed 104 weeks, study length 104 weeks
  TD50: 54.9 mg/kg/day [study A] and 12.2 mg/kg/day [study B]
mouse, strain Charles River CD1, females, in drinking water, site: lung, lesion: alveolar/bronchiolar adenoma, dosed 52 weeks, study length 52 weeks
  TD50: inactive: 28.5 mg/kg/day [study A] and 3.93 mg/kg/day [study B]
mouse, strain Charles River CD1, females, in drinking water, site: lung, lesion: alveolar/bronchiolar adenoma, dosed 104 weeks, study length 104 weeks
  TD50: 6.46 mg/kg/day [study A] and 37.1 mg/kg/day [study B]
mouse, strain Charles River CD1, females, in drinking water, site: lung, lesion: alveolar/bronchiolar carcinoma, dosed 104 weeks, study length 104 weeks
  TD50: 23.3 mg/kg/day [study A] and 199 mg/kg/day [study B]
mouse, strain Charles River CD1, females, in drinking water, site: lung, lesion: several types, types named in the paper, dosed 104 weeks, study length 104 weeks
  TD50: 4.12 mg/kg/day [study A] and 27 mg/kg/day [study B]
mouse, strain Charles River CD1, males, in drinking water, site: all sites, lesion: hemangiosarcoma, dosed 104 weeks, study length 104 weeks
  TD50: 26.7 mg/kg/day [study A] and 6.53 mg/kg/day [study B]
mouse, strain Charles River CD1, males, in drinking water, site: liver, lesion: hemangiosarcoma, dosed 104 weeks, study length 104 weeks
  TD50: 44.8 mg/kg/day [study A] and 6.88 mg/kg/day [study B]
mouse, strain Charles River CD1, males, in drinking water, site: liver, lesion: hepatocellular adenoma, dosed 104 weeks, study length 104 weeks
  TD50: 29.7 mg/kg/day [study A] and 140 mg/kg/day [study B]
mouse, strain Charles River CD1, males, in drinking water, site: liver, lesion: several types, types named in the paper, dosed 104 weeks, study length 104 weeks
  TD50: 7.22 mg/kg/day [study A] and 2.4e+07 mg/kg/day [study B]
mouse, strain Charles River CD1, males, in drinking water, site: lung, lesion: alveolar/bronchiolar adenoma, dosed 104 weeks, study length 104 weeks
  TD50: 116 mg/kg/day [study A] and 34.3 mg/kg/day [study B]

## CC(C)CCCCCCOC(=O)c1ccccc1C(=O)OCCCCCCC(C)C
rat, strain Fischer 344, females, in feed, site: liver, lesion: several types, types named in the paper, dosed 104 weeks, study length 104 weeks
  TD50: 81300 mg/kg/day [study A] and 4570 mg/kg/day [study B]
rat, strain Fischer 344, males, in feed, site: all sites, lesion: mononuclear-cell leukemia, dosed 104 weeks, study length 104 weeks
  TD50: 266 mg/kg/day [study A] and 2100 mg/kg/day [study B]
rat, strain Fischer 344, males, in feed, site: liver, lesion: several types, types named in the paper, dosed 104 weeks, study length 104 weeks
  TD50: 9760 mg/kg/day [study A] and 1540 mg/kg/day [study B]

## CCO
rat, strain Sprague-Dawley, females, in drinking water, site: any site (literature study), lesion: benign tumor, dosed 104 weeks, study length 120 weeks
  TD50: 3150 mg/kg/day [study A] and 12100 mg/kg/day [study B]

## CCCCOCCOCCOCc1cc2c(cc1CCC)OCO2
mouse, strain B6AKF1, females, oral dosing, site: any site (literature study), lesion: several types, types named in the paper, dosed 76 weeks, study length 76 weeks
  TD50: inactive: 1010 mg/kg/day [sample A, study B] and 265 mg/kg/day [sample B, study A]
mouse, strain B6C3F1, males, oral dosing, site: any site (literature study), lesion: several types, types named in the paper, dosed 76 weeks, study length 76 weeks
  TD50: inactive: 93.1 mg/kg/day [sample A, study B] and 22.4 mg/kg/day [sample B, study A]

## ClC=C(Cl)Cl
rat, strain Sprague-Dawley, females, inhaled, site: all sites, lesion: leukemia, dosed 104 weeks, study length 159 weeks
  TD50: 4.6e+09 mg/kg/day [study A] and 2850 mg/kg/day [study B]
rat, strain Sprague-Dawley, females, inhaled, site: any site (literature study), lesion: malignant tumor, dosed 104 weeks, study length 159 weeks
  TD50: 6230 mg/kg/day [study A] and 1620 mg/kg/day [study B]
rat, strain Sprague-Dawley, males, inhaled, site: any site (literature study), lesion: malignant tumor, dosed 104 weeks, study length 159 weeks
  TD50: 10800 mg/kg/day [study A] and 1940 mg/kg/day [study B]
rat, strain Sprague-Dawley, males, inhaled, site: any site (literature study), lesion: several types, types named in the paper, dosed 104 weeks, study length 159 weeks
  TD50: 1880 mg/kg/day [study A] and 428 mg/kg/day [study B]
